From US10925856B2, “Methods and compositions involving bucindolol for the treatment of atrial fibrillation” (priority 2018, dated 2021)

Test system: HFrEF patients with the ADRB1 Arg389Arg genotype at high risk for recurrent AF
Settings: for Events/pts (%) / Events/pts, time to any AF/AFL or ACM / Hazard ratio (95% C.I.): U.S. randomized patients; for HR (95% CI), time to first event of AF/AFL/ACM: bucindolol vs. metoprolol
[1] = Serbia (N = 21), bucindolol vs metoprolol
[2] = Totals, 255 CYP2D6-genotyped patients
[3] = U.S. (N = 127), bucindolol vs metoprolol
[4] = entire cohort, 2D6 Poor Metabolizers (PMs)
[5] = entire cohort, 2D6 Poor Metabolizers (PMs), listed as Bucindolol
[6] = entire cohort, DTRI > −1 days in LVEF ≥ 0.39
[7] = entire cohort, Heart rate >74 bpm
[8] = entire cohort, Heart rate ≤ 74 bpm
[9] = entire cohort, Ischemic etiology
[10] = entire cohort, LVEF ≥ 0.39, AF Dx to randomization > 321 days
[11] = entire cohort, LVEF ≥ 0.39, AF Dx to randomization ≤ 321 days
[12] = entire cohort, NT-proBNP ≥ 1131 pg/ml
[13] = entire cohort, Non-ischemic etiology
[14] = entire cohort, Norepinephrine ≥ 600 pg/ml
[15] = entire cohort, Persistent AF at Randomization
[16] = entire cohort, Previous catheter ablation
[17] = entire cohort, SR/Paroxysmal AF at Randomization

CC(C)(Cc1c[nH]c2ccccc12)NCC(O)COc1ccccc1C#N (centres unmarked) [bucindolol, 2-(3-(1-(1H-indol-3-yl)-2-methylpropan-2-ylamino)-2-hydroxypropoxy)benzonitrile]
Time to AF/AFL/ACM, Non-stratified HR (95% CI) [1]: 0.59
Time to AF/AFL/ACM, Stratified HR (95% CI) [1]: 0.42
1EP Events [2]: 71
1EP Events (rate) [2]: (56%)
Hazard Ratio Unadjusted, primary endpoint (1EP) (Totals, 255 CYP2D6-genotyped patients, bucindolol vs metoprolol): 0.98
Failed ECV at day 0 (U.S.): 9%
Time to AF/AFL/ACM, Non-stratified HR (95% CI) [3]: 0.77
Time to AF/AFL/ACM, Stratified HR (95% CI) [3]: 0.70
hazard ratio, Phase 2 (time to any AF/AFL or ACM) (U.S. (n = 127), covariate adjusted): 0.70
Hazard ratio, time to first AF/AFL/ACM, bucindolol vs. metoprolol (U.S. patients N=127, covariate adjusted): 0.70
Hazard ratio, Phase 2 primary endpoint, bucindolol vs. metoprolol (U.S. patients, LVEF <0.30): 0.74
Hazard ratio, Phase 2 primary endpoint, bucindolol vs. metoprolol (U.S. patients, LVEF ≤0.35): 0.75
Hazard ratio, Phase 2 primary endpoint, bucindolol vs. metoprolol (U.S. patients, NYHA Class III): 0.81
Hazard ratio, time to first AF/AFL/ACM, bucindolol vs. metoprolol (U.S. patients, unadjusted): 0.77
Events/pts (%) (LVEF 0.30-0.39 (mean 0.332)): (56%)
Events/pts, time to any AF/AFL or ACM (LVEF 0.30-0.39 (mean 0.332)): 10/18
Hazard ratio (95% C.I.) (LVEF 0.30-0.39, bucindolol vs metoprolol): 0.86
Events/pts (%) (LVEF 0.40-0.49 (mean 0.443)): (62.5%)
Events/pts, time to any AF/AFL or ACM (LVEF 0.40-0.49 (mean 0.443)): 15/24
Hazard ratio (95% C.I.) (LVEF 0.40-0.49, bucindolol vs metoprolol): 0.51
Events/pts (%) (LVEF <0.30 (mean 0.229)): (41%)
Events/pts, time to any AF/AFL or ACM (LVEF <0.30 (mean 0.229)): 7/17
Hazard ratio (95% C.I.) (LVEF <0.30, bucindolol vs metoprolol): 0.74
Events/pts (%) (NYHA Class I): (33%)
Events/pts, time to any AF/AFL or ACM (NYHA Class I): 4/12
Hazard ratio (95% C.I.) (NYHA Class I, bucindolol vs metoprolol): 0.55
Events/pts (%) (NYHA Class II): (64%)
Events/pts, time to any AF/AFL or ACM (NYHA Class II): 23/36
Hazard ratio (95% C.I.) (NYHA Class II, bucindolol vs metoprolol): 0.82
Events/pts (%) (NYHA Class III): (50%)
Events/pts, time to any AF/AFL or ACM (NYHA Class III): 6/12
Hazard ratio (95% C.I.) (NYHA Class III, bucindolol vs metoprolol): 0.81
Hazard ratio, Phase 2 primary endpoint, bucindolol vs. metoprolol (all 2D6 genotypes other than PMs (IMs+EMs+UMs)): 0.92
HR (95% CI), time to first event of AF/AFL/ACM (AF12/HF12/DTRI-2, HFlrEF LVEF < 0.40): 0.69
HR (95% CI), time to first event of AF/AFL/ACM (AF12/HF12/DTRI-2, HFmrEF 0.40 ≤ LVEF < 0.50): 0.42 (0.21, 0.86)
HR (95% CI), time to first event of AF/AFL/ACM (AF12/HF12/DTRI-2, HFrEF LVEF < 0.50): 0.54
HR (95% CI), time to first event of AF/AFL/ACM (AF12/HF12, HFlrEF LVEF < 0.40): 0.74
HR (95% CI), time to first event of AF/AFL/ACM (AF12/HF12, HFmrEF 0.40 ≤ LVEF < 0.50): 0.61 (0.34, 1.10)
HR (95% CI), time to first event of AF/AFL/ACM (AF12/HF12, HFrEF LVEF < 0.50): 0.68
HR (95% CI), time to first event of AF/AFL/ACM (All Patients, HFlrEF LVEF < 0.40): 1.03
HR (95% CI), time to first event of AF/AFL/ACM (All Patients, HFmrEF 0.40 ≤ LVEF < 0.50): 0.78 (0.45, 1.33)
HR (95% CI), time to first event of AF/AFL/ACM (All Patients, HFrEF LVEF < 0.50): 0.92
Hazard ratio, time to first AF/AFL/ACM, bucindolol vs. metoprolol (entire cohort N=267, covariate adjusted (four randomization strata), 24 weeks): 1.01
Hazard ratio, time to first AF/AFL/ACM, bucindolol vs. metoprolol (entire cohort with Hungary removed): 0.82
Hazard ratio (unadjusted), Phase 2 primary endpoint, bucindolol vs. metoprolol [4]: 2.19 and > 2.0
Primary endpoint event rate [4]: 67%
Primary endpoint event rate, events/patients [4]: 8/12
Hazard ratio (unadjusted), Phase 2 primary endpoint, bucindolol vs. metoprolol [5]: 2.19
Primary endpoint event rate [5]: (67%)
Hazard ratio (unadjusted), Phase 2 primary endpoint, bucindolol vs. metoprolol (entire cohort, AF at Rand): 0.91
Primary endpoint event rate (entire cohort, AF at Rand): (74%)
Primary endpoint event rate, events/patients (entire cohort, AF at Rand): 49/66
Hazard ratio (unadjusted), Phase 2 primary endpoint, bucindolol vs. metoprolol (entire cohort, Age > 66 years): 0.75
Primary endpoint event rate (entire cohort, Age > 66 years): (48%)
Primary endpoint event rate, events/patients (entire cohort, Age > 66 years): 34/71
Hazard ratio (unadjusted), Phase 2 primary endpoint, bucindolol vs. metoprolol (entire cohort, All Subjects): 0.96
Primary endpoint event rate (entire cohort, All Subjects): 54%
Primary endpoint event rate, events/patients (entire cohort, All Subjects): 73/134
Primary endpoint event rate (entire cohort, All Subjects, listed as Bucindolol): (54%)
Hazard ratio (unadjusted), Phase 2 primary endpoint, bucindolol vs. metoprolol [6]: 0.71
Primary endpoint event rate [6]: (50%)
Primary endpoint event rate, events/patients [6]: 14/28
Hazard ratio (unadjusted), Phase 2 primary endpoint, bucindolol vs. metoprolol (entire cohort, Gender female): 1.22
Primary endpoint event rate (entire cohort, Gender female): (57%)
Primary endpoint event rate, events/patients (entire cohort, Gender female): 13/23
Hazard ratio (unadjusted), Phase 2 primary endpoint, bucindolol vs. metoprolol [7]: 0.89
Primary endpoint event rate [7]: (64%)
Primary endpoint event rate, events/patients [7]: 41/64
Hazard ratio (unadjusted), Phase 2 primary endpoint, bucindolol vs. metoprolol [8]: 1.12
Primary endpoint event rate [8]: (46%)
Primary endpoint event rate, events/patients [8]: 32/70
Hazard ratio (unadjusted), Phase 2 primary endpoint, bucindolol vs. metoprolol [9]: 0.79
Primary endpoint event rate [9]: (43%)
Primary endpoint event rate, events/patients [9]: 18/42
Hazard ratio (unadjusted), Phase 2 primary endpoint, bucindolol vs. metoprolol (entire cohort, LVEF < 0.39): 1.02
Primary endpoint event rate (entire cohort, LVEF < 0.39): (55%)
Primary endpoint event rate, events/patients (entire cohort, LVEF < 0.39): 38/69
Hazard ratio (unadjusted), Phase 2 primary endpoint, bucindolol vs. metoprolol (entire cohort, LVEF ≥ 0.39): 0.89
Primary endpoint event rate (entire cohort, LVEF ≥ 0.39): (54%)
Primary endpoint event rate, events/patients (entire cohort, LVEF ≥ 0.39): 35/65
Hazard ratio (unadjusted), Phase 2 primary endpoint, bucindolol vs. metoprolol [10]: 1.20
Primary endpoint event rate [10]: (57%)
Primary endpoint event rate, events/patients [10]: 17/30
Hazard ratio (unadjusted), Phase 2 primary endpoint, bucindolol vs. metoprolol [11]: 0.65
Primary endpoint event rate [11]: (51%)
Primary endpoint event rate, events/patients [11]: 18/35
Hazard ratio, Phase 2 primary endpoint, bucindolol vs. metoprolol (entire cohort, LVEF ≥0.39, DTRI quartile Q1): 1.52
Hazard ratio, Phase 2 primary endpoint, bucindolol vs. metoprolol (entire cohort, LVEF ≥0.39, DTRI quartile Q2): 0.63
Hazard ratio (unadjusted), Phase 2 primary endpoint, bucindolol vs. metoprolol [12]: 0.87
Primary endpoint event rate [12]: (63%)
Primary endpoint event rate, events/patients [12]: 26/41
Hazard ratio (unadjusted), Phase 2 primary endpoint, bucindolol vs. metoprolol (entire cohort, NYHA I): 0.72
Primary endpoint event rate (entire cohort, NYHA I): (38%)
Primary endpoint event rate, events/patients (entire cohort, NYHA I): 15/40
Hazard ratio (unadjusted), Phase 2 primary endpoint, bucindolol vs. metoprolol (entire cohort, NYHA II/III): 1.06
Primary endpoint event rate (entire cohort, NYHA II/III): (62%)
Primary endpoint event rate, events/patients (entire cohort, NYHA II/III): 58/94
Hazard ratio (unadjusted), Phase 2 primary endpoint, bucindolol vs. metoprolol (entire cohort, No previous ECV): 0.82
Primary endpoint event rate (entire cohort, No previous ECV): (47%)
Primary endpoint event rate, events/patients (entire cohort, No previous ECV): 32/68
Hazard ratio (unadjusted), Phase 2 primary endpoint, bucindolol vs. metoprolol [13]: 1.02
Primary endpoint event rate [13]: (60%)
Primary endpoint event rate, events/patients [13]: 55/92
Hazard ratio (unadjusted), Phase 2 primary endpoint, bucindolol vs. metoprolol [14]: 0.81
Primary endpoint event rate [14]: (51%)
Primary endpoint event rate, events/patients [14]: 35/68
Hazard ratio (unadjusted), Phase 2 primary endpoint, bucindolol vs. metoprolol [15]: 0.85
Primary endpoint event rate [15]: (71%)
Primary endpoint event rate, events/patients [15]: 32/45
Hazard ratio (unadjusted), Phase 2 primary endpoint, bucindolol vs. metoprolol [16]: 0.73
Primary endpoint event rate [16]: (48%)
Primary endpoint event rate, events/patients [16]: 12/25
Hazard ratio (unadjusted), Phase 2 primary endpoint, bucindolol vs. metoprolol (entire cohort, SBP < 123 mm Hg): 1.18
Primary endpoint event rate (entire cohort, SBP < 123 mm Hg): (66%)
Primary endpoint event rate, events/patients (entire cohort, SBP < 123 mm Hg): 40/61
Hazard ratio (unadjusted), Phase 2 primary endpoint, bucindolol vs. metoprolol (entire cohort, SBP > 123 mm Hg): 0.82
Primary endpoint event rate (entire cohort, SBP > 123 mm Hg): (45%
Primary endpoint event rate, events/patients (entire cohort, SBP > 123 mm Hg): 33/73
Hazard ratio (unadjusted), Phase 2 primary endpoint, bucindolol vs. metoprolol (entire cohort, SR at FU Start): 1.00
Primary endpoint event rate (entire cohort, SR at FU Start): (52%)
Primary endpoint event rate, events/patients (entire cohort, SR at FU Start): 64/122
Hazard ratio (unadjusted), Phase 2 primary endpoint, bucindolol vs. metoprolol (entire cohort, SR at Rand): 1.13
Primary endpoint event rate (entire cohort, SR at Rand): (35%)
Primary endpoint event rate, events/patients (entire cohort, SR at Rand): 24/68
Hazard ratio (unadjusted), Phase 2 primary endpoint, bucindolol vs. metoprolol [17]: 1.09
Primary endpoint event rate [17]: (46%)
Primary endpoint event rate, events/patients [17]: 41/89
AF/AFL events among primary endpoint events (entire cohort, number): 64
Deaths among primary endpoint events (entire cohort, number): no deaths
ECV failures among primary endpoint events (entire cohort, number): 9
Primary endpoint events (entire cohort, number of events): Seventy-three
Hazard ratio, time to first AF/AFL/ACM, bucindolol vs. metoprolol (entire cohort, stratified analysis including adjustment for previous use of class III anti-arrhythmic drugs): 0.92
Hazard ratio, AF/AFL/ACM endpoint, bucindolol vs. metoprolol (interim analysis (230 randomized patients), USA): 0.73
Primary endpoint event rate (overall, CYP2D6 genotyped patients): 56%

Where “and” joins values, the source holds several entries; their conditions need not be identical. Identical values can stand only once. Like-named read-outs stand apart in the source and are kept apart here.
